Reference: the supplement of paper PMC7125110
± gives the standard error. Variants at the floor of the assay are shown more often than the library holds them.

B1: glmS ribozyme (parent)
chain: AUAAAAGCGCCAGAACUACAGAAAUGUAGUUGACGAGGAGGAGGUUUAUCGAAUUUUCGGCGGAUGCCUCCAAA

Tests used:
Conditions in all cases: with glucosamine-6-phosphate
[1] = variants of: B1; assay: self-cleavage kobs at 40 uM GlcN6P; higher = faster cleavage; RNA array
Outline: (§1)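 Barcoded ribozyme variants were transcribed in situ on sequenced MiSeq chips by E. coli RNA polymerase. At 37 °C, a hybridised Cy3 probe tracked them while glucosamine-6-phosphate (40 μM to 10 mM) in HEPES/KCl/Mg(OAc)2 buffer flowed in and tiles were imaged over ~14 h. Per-tile medians of signals normalised to baseline and to non-cleaving reference variants were fit to one- or two-exponential decays, giving kobs. kcat and KM came from weighted Michaelis–Menten fits across concentrations.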

[2] = variants of: B1; assay: self-cleavage kobs at 640 uM GlcN6P; higher = faster cleavage; RNA array
Outline: as §1

[3] = variants of: B1; assay: self-cleavage kobs at 2500 uM GlcN6P; higher = faster cleavage; RNA array
Outline: as §1

[4] = variants of: B1; assay: self-cleavage kobs at 10000 uM GlcN6P; higher = faster cleavage; RNA array
Outline: as §1

[5] = variants of: B1; assay: self-cleavage kobs at 160 uM GlcN6P; higher = faster cleavage; RNA array
Outline: as §1

A42U G43C G59C
self-cleavage kobs at 40 uM GlcN6P [1]: < 1e-05 s⁻¹ | self-cleavage kobs at 640 uM GlcN6P [2]: < 1e-05 s⁻¹ | self-cleavage kobs at 2500 uM GlcN6P [3]: < 1e-05 s⁻¹

A42U G44A U65G
self-cleavage kobs at 40 uM GlcN6P [1]: < 1e-05 s⁻¹

A42U G44C C68G
self-cleavage kobs at 40 uM GlcN6P [1]: < 1e-05 s⁻¹ | self-cleavage kobs at 10000 uM GlcN6P [4]: < 1e-05 s⁻¹

A42U G51U U55G
self-cleavage kobs at 40 uM GlcN6P [1]: < 1e-05 s⁻¹

A42U G60A C68A
self-cleavage kobs at 40 uM GlcN6P [1]: < 1e-05 s⁻¹ | self-cleavage kobs at 2500 uM GlcN6P [3]: < 1e-05 s⁻¹

A42U G60C C67A
self-cleavage kobs at 40 uM GlcN6P [1]: < 1e-05 s⁻¹ | self-cleavage kobs at 10000 uM GlcN6P [4]: < 1e-05 s⁻¹

A42U G60U C70G
self-cleavage kobs at 40 uM GlcN6P [1]: < 1e-05 s⁻¹ | self-cleavage kobs at 640 uM GlcN6P [2]: < 1e-05 s⁻¹ | self-cleavage kobs at 160 uM GlcN6P [5]: < 1e-05 s⁻¹ | self-cleavage kobs at 10000 uM GlcN6P [4]: < 1e-05 s⁻¹

A42U U49G
self-cleavage kobs at 40 uM GlcN6P [1]: < 1e-05 s⁻¹ | self-cleavage kobs at 640 uM GlcN6P [2]: < 1e-05 s⁻¹ | self-cleavage kobs at 2500 uM GlcN6P [3]: < 1e-05 s⁻¹

A42U U49G U57A C61G
self-cleavage kobs at 40 uM GlcN6P [1]: < 1e-05 s⁻¹ | self-cleavage kobs at 640 uM GlcN6P [2]: < 1e-05 s⁻¹ | self-cleavage kobs at 2500 uM GlcN6P [3]: < 1e-05 s⁻¹ | self-cleavage kobs at 10000 uM GlcN6P [4]: < 1e-05 s⁻¹

A42U U55A G63C
self-cleavage kobs at 40 uM GlcN6P [1]: < 1e-05 s⁻¹ | self-cleavage kobs at 640 uM GlcN6P [2]: < 1e-05 s⁻¹ | self-cleavage kobs at 160 uM GlcN6P [5]: < 1e-05 s⁻¹ | self-cleavage kobs at 10000 uM GlcN6P [4]: < 1e-05 s⁻¹

G43A A53U
self-cleavage kobs at 40 uM GlcN6P [1]: < 1e-05 s⁻¹ | self-cleavage kobs at 160 uM GlcN6P [5]: < 1e-05 s⁻¹

G43A A64C
self-cleavage kobs at 40 uM GlcN6P [1]: < 1e-05 s⁻¹ | self-cleavage kobs at 640 uM GlcN6P [2]: < 1e-05 s⁻¹

G43A C68A
self-cleavage kobs at 40 uM GlcN6P [1]: < 1e-05 s⁻¹

G43A C70G
self-cleavage kobs at 40 uM GlcN6P [1]: < 1e-05 s⁻¹ | self-cleavage kobs at 640 uM GlcN6P [2]: < 1e-05 s⁻¹ | self-cleavage kobs at 160 uM GlcN6P [5]: < 1e-05 s⁻¹ | self-cleavage kobs at 2500 uM GlcN6P [3]: < 1e-05 s⁻¹ | self-cleavage kobs at 10000 uM GlcN6P [4]: < 1e-05 s⁻¹

G43A G44A G51A C58A
self-cleavage kobs at 40 uM GlcN6P [1]: < 1e-05 s⁻¹ | self-cleavage kobs at 10000 uM GlcN6P [4]: < 1e-05 s⁻¹

G43A G44U U46C
self-cleavage kobs at 40 uM GlcN6P [1]: < 1e-05 s⁻¹ | self-cleavage kobs at 10000 uM GlcN6P [4]: < 1e-05 s⁻¹

G43A G59C C70U
self-cleavage kobs at 40 uM GlcN6P [1]: < 1e-05 s⁻¹

G43A G59U
self-cleavage kobs at 40 uM GlcN6P [1]: < 1e-05 s⁻¹ | self-cleavage kobs at 640 uM GlcN6P [2]: < 1e-05 s⁻¹ | self-cleavage kobs at 160 uM GlcN6P [5]: < 1e-05 s⁻¹ | self-cleavage kobs at 10000 uM GlcN6P [4]: < 1e-05 s⁻¹

G43A G63U
self-cleavage kobs at 40 uM GlcN6P [1]: < 1e-05 s⁻¹ | self-cleavage kobs at 640 uM GlcN6P [2]: < 1e-05 s⁻¹ | self-cleavage kobs at 160 uM GlcN6P [5]: < 1e-05 s⁻¹

G43A U45G C58G
self-cleavage kobs at 40 uM GlcN6P [1]: < 1e-05 s⁻¹

G43A U46A U54G
self-cleavage kobs at 40 uM GlcN6P [1]: < 1e-05 s⁻¹

G43A U46C
self-cleavage kobs at 40 uM GlcN6P [1]: < 1e-05 s⁻¹ | self-cleavage kobs at 2500 uM GlcN6P [3]: < 1e-05 s⁻¹

G43A U46G
self-cleavage kobs at 40 uM GlcN6P [1]: < 1e-05 s⁻¹

G43A U49A C61U G62A G66A
self-cleavage kobs at 40 uM GlcN6P [1]: < 1e-05 s⁻¹ | self-cleavage kobs at 10000 uM GlcN6P [4]: < 1e-05 s⁻¹

G43A U56A
self-cleavage kobs at 40 uM GlcN6P [1]: < 1e-05 s⁻¹ | self-cleavage kobs at 160 uM GlcN6P [5]: < 1e-05 s⁻¹

G43C A53C
self-cleavage kobs at 40 uM GlcN6P [1]: < 1e-05 s⁻¹ | self-cleavage kobs at 640 uM GlcN6P [2]: < 1e-05 s⁻¹ | self-cleavage kobs at 160 uM GlcN6P [5]: < 1e-05 s⁻¹ | self-cleavage kobs at 2500 uM GlcN6P [3]: < 1e-05 s⁻¹

G43C C58U
self-cleavage kobs at 40 uM GlcN6P [1]: < 1e-05 s⁻¹ | self-cleavage kobs at 640 uM GlcN6P [2]: < 1e-05 s⁻¹ | self-cleavage kobs at 160 uM GlcN6P [5]: < 1e-05 s⁻¹ | self-cleavage kobs at 2500 uM GlcN6P [3]: < 1e-05 s⁻¹ | self-cleavage kobs at 10000 uM GlcN6P [4]: < 1e-05 s⁻¹

G43C C71U
self-cleavage kobs at 40 uM GlcN6P [1]: < 1e-05 s⁻¹ | self-cleavage kobs at 640 uM GlcN6P [2]: < 1e-05 s⁻¹ | self-cleavage kobs at 160 uM GlcN6P [5]: < 1e-05 s⁻¹ | self-cleavage kobs at 2500 uM GlcN6P [3]: < 1e-05 s⁻¹

G43C G44U
self-cleavage kobs at 40 uM GlcN6P [1]: < 1e-05 s⁻¹ | self-cleavage kobs at 640 uM GlcN6P [2]: < 1e-05 s⁻¹ | self-cleavage kobs at 160 uM GlcN6P [5]: < 1e-05 s⁻¹ | self-cleavage kobs at 2500 uM GlcN6P [3]: < 1e-05 s⁻¹ | self-cleavage kobs at 10000 uM GlcN6P [4]: < 1e-05 s⁻¹

G43C G63U
self-cleavage kobs at 40 uM GlcN6P [1]: < 1e-05 s⁻¹ | self-cleavage kobs at 640 uM GlcN6P [2]: < 1e-05 s⁻¹ | self-cleavage kobs at 160 uM GlcN6P [5]: < 1e-05 s⁻¹ | self-cleavage kobs at 2500 uM GlcN6P [3]: < 1e-05 s⁻¹

G43C U47C
self-cleavage kobs at 40 uM GlcN6P [1]: < 1e-05 s⁻¹ | self-cleavage kobs at 640 uM GlcN6P [2]: < 1e-05 s⁻¹ | self-cleavage kobs at 160 uM GlcN6P [5]: < 1e-05 s⁻¹ | self-cleavage kobs at 2500 uM GlcN6P [3]: < 1e-05 s⁻¹

G43C U54A
self-cleavage kobs at 40 uM GlcN6P [1]: < 1e-05 s⁻¹ | self-cleavage kobs at 640 uM GlcN6P [2]: < 1e-05 s⁻¹ | self-cleavage kobs at 160 uM GlcN6P [5]: < 1e-05 s⁻¹ | self-cleavage kobs at 2500 uM GlcN6P [3]: < 1e-05 s⁻¹ | self-cleavage kobs at 10000 uM GlcN6P [4]: < 1e-05 s⁻¹

G43C U54G
self-cleavage kobs at 40 uM GlcN6P [1]: < 1e-05 s⁻¹ | self-cleavage kobs at 640 uM GlcN6P [2]: < 1e-05 s⁻¹ | self-cleavage kobs at 160 uM GlcN6P [5]: < 1e-05 s⁻¹

G43U A48C
self-cleavage kobs at 40 uM GlcN6P [1]: < 1e-05 s⁻¹

G43U A48G
self-cleavage kobs at 40 uM GlcN6P [1]: < 1e-05 s⁻¹ | self-cleavage kobs at 640 uM GlcN6P [2]: < 1e-05 s⁻¹ | self-cleavage kobs at 160 uM GlcN6P [5]: < 1e-05 s⁻¹ | self-cleavage kobs at 2500 uM GlcN6P [3]: < 1e-05 s⁻¹ | self-cleavage kobs at 10000 uM GlcN6P [4]: < 1e-05 s⁻¹

G43U A48U
self-cleavage kobs at 40 uM GlcN6P [1]: < 1e-05 s⁻¹ | self-cleavage kobs at 640 uM GlcN6P [2]: < 1e-05 s⁻¹ | self-cleavage kobs at 160 uM GlcN6P [5]: < 1e-05 s⁻¹ | self-cleavage kobs at 2500 uM GlcN6P [3]: < 1e-05 s⁻¹ | self-cleavage kobs at 10000 uM GlcN6P [4]: < 1e-05 s⁻¹

G43U A52C
self-cleavage kobs at 40 uM GlcN6P [1]: < 1e-05 s⁻¹ | self-cleavage kobs at 640 uM GlcN6P [2]: < 1e-05 s⁻¹ | self-cleavage kobs at 160 uM GlcN6P [5]: < 1e-05 s⁻¹ | self-cleavage kobs at 2500 uM GlcN6P [3]: < 1e-05 s⁻¹ | self-cleavage kobs at 10000 uM GlcN6P [4]: < 1e-05 s⁻¹

G43U A52G C61U G66A C67G
self-cleavage kobs at 40 uM GlcN6P [1]: < 1e-05 s⁻¹ | self-cleavage kobs at 640 uM GlcN6P [2]: < 1e-05 s⁻¹

G43U C61G
self-cleavage kobs at 40 uM GlcN6P [1]: < 1e-05 s⁻¹ | self-cleavage kobs at 640 uM GlcN6P [2]: < 1e-05 s⁻¹

G43U C61G U65C
self-cleavage kobs at 40 uM GlcN6P [1]: < 1e-05 s⁻¹ | self-cleavage kobs at 10000 uM GlcN6P [4]: < 1e-05 s⁻¹

G43U C61U C68U
self-cleavage kobs at 40 uM GlcN6P [1]: < 1e-05 s⁻¹ | self-cleavage kobs at 640 uM GlcN6P [2]: < 1e-05 s⁻¹ | self-cleavage kobs at 10000 uM GlcN6P [4]: < 1e-05 s⁻¹

G43U C67G
self-cleavage kobs at 40 uM GlcN6P [1]: 7.18e-05 ± 1e-05 s⁻¹ | self-cleavage kobs at 640 uM GlcN6P [2]: 0.000597 ± 8.6e-05 s⁻¹ | self-cleavage kobs at 160 uM GlcN6P [5]: 0.00022 ± 6e-05 s⁻¹ | self-cleavage kobs at 2500 uM GlcN6P [3]: 0.00117 ± 0.0002 s⁻¹ | self-cleavage kobs at 10000 uM GlcN6P [4]: 0.00166 ± 0.00022 s⁻¹

G43U C68A
self-cleavage kobs at 40 uM GlcN6P [1]: 0.00235 ± 0.00036 s⁻¹ | self-cleavage kobs at 640 uM GlcN6P [2]: 0.0194 ± 0.0032 s⁻¹ | self-cleavage kobs at 160 uM GlcN6P [5]: 0.00333 ± 0.00054 s⁻¹ | self-cleavage kobs at 2500 uM GlcN6P [3]: 0.0175 ± 0.005 s⁻¹ | self-cleavage kobs at 10000 uM GlcN6P [4]: 0.0761 ± 0.024 s⁻¹

G43U C68G
self-cleavage kobs at 40 uM GlcN6P [1]: 0.000533 ± 9.6e-05 s⁻¹

G43U C70G
self-cleavage kobs at 40 uM GlcN6P [1]: < 1e-05 s⁻¹ | self-cleavage kobs at 640 uM GlcN6P [2]: < 1e-05 s⁻¹ | self-cleavage kobs at 160 uM GlcN6P [5]: < 1e-05 s⁻¹ | self-cleavage kobs at 2500 uM GlcN6P [3]: < 1e-05 s⁻¹ | self-cleavage kobs at 10000 uM GlcN6P [4]: < 1e-05 s⁻¹

G43U C71A
self-cleavage kobs at 40 uM GlcN6P [1]: < 1e-05 s⁻¹ | self-cleavage kobs at 640 uM GlcN6P [2]: < 1e-05 s⁻¹ | self-cleavage kobs at 160 uM GlcN6P [5]: < 1e-05 s⁻¹ | self-cleavage kobs at 10000 uM GlcN6P [4]: < 1e-05 s⁻¹
